Here are results for 32 sequences from publication PMC12820563, “FoxP3 forms a head-to-head dimer in vivo and stabilizes its multimerization on adjacent microsatellites”.

This is one part of the list.

The test addresses T1, MBP-FoxP1dN (Mus musculus, UniProt P58462 326-579).
T1 sequence: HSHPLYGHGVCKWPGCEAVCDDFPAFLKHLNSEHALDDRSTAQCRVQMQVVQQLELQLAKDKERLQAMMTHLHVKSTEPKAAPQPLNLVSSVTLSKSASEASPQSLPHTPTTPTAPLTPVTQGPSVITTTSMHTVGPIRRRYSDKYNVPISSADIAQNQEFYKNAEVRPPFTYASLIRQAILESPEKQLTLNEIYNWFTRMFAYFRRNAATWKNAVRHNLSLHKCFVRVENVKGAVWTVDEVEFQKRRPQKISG
The test can be described thus: PD-seq (MBP pull-down with sequencing); 20 mM Tris-HCl pH 7.5, 100 mM NaCl, 1.5 mM MgCl2, 0.4 uM protein, 0.1 uM dsDNA library, 30 min, room temperature, amylose pull-down; high values mean tight binding. Conditions: protein: recombinant; tags: His6-MBP; chain copies: 2; dsDNA, one strand shown. An outline of the steps: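 His6-MBP-tagged mouse FoxP3 or FoxP1 fragment lacking the N-terminus, expressed in E. coli, was mixed at 0.4 µM with 0.1 µM Klenow-filled double-stranded degenerate DNA library. Incubation was 30 min at room temperature in Tris pH 7.5 buffer with NaCl and MgCl2. Complexes were caught on amylose resin and washed three times; DNA was released with proteinase K, PCR-barcoded and Illumina-sequenced. Binding is reads-per-million enrichment, pull-down over input, with replicates pooled.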
Consider “GATGATTGTTCTCCCAGCTGATGAATTTAGCGTGTCGAGTAAACAAATTTTCCTAATCTTTCTGTTCAAGCGCCATCTAC”, for which the binding signal was 0.999 RPM ratio (pull-down/input).

Take “GATGATTGTTCTCCCAGCTGATGAATTGTTCAACTCGAGTAAACAAATTTTCCTAATCTTTCTGTTCAAGCGCCATCTAC”: the binding signal is 1.17 RPM ratio (pull-down/input).

In the case of “GATGATTGTTCTCCCAGCTGATGAATTGCGGCGTTCGAGTAAACAAATTTTCCTAATCTTTCTGTTCAAGCGCCATCTAC”, the binding signal is 0.991 RPM ratio (pull-down/input).

On to “GATGATTGTTCTCCCAGCTGATGAATTCGACCAATCGAGTAAACAAATTTTCCTAATCTTTCTGTTCAAGCGCCATCTAC”, for which the binding signal is 0.947 RPM ratio (pull-down/input).

For the sequence “GATGATTGTTCTCCCAGCTGATGAATTTACACATTCGAGTAAACAAATTTTCCTAATCTTTCTGTTCAAGCGCCATCTAC”, the binding signal was 1.6 RPM ratio (pull-down/input).

For “GATGATTGTTCTCCCAGCTGATGAATTAGGGCATTCGAGTAAACAAATTTTCCTAATCTTTCTGTTCAAGCGCCATCTAC”, the binding signal is 1.1 RPM ratio (pull-down/input).

With “GATGATTGTTCTCCCAGCTGATGAATTGTACAGATCGAGTAAACAAATTTTCCTAATCTTTCTGTTCAAGCGCCATCTAC”, the binding signal is 0.911 RPM ratio (pull-down/input).

As for “GATGATTGTTCTCCCAGCTGATGAATTTGGTTGCTCGAGTAAACAAATTTTCCTAATCTTTCTGTTCAAGCGCCATCTAC”, the binding signal was 0.997 RPM ratio (pull-down/input).

Regarding “GATGATTGTTCTCCCAGCTGATGAATTATAGGCATCGAGTAAACAAATTTTCCTAATCTTTCTGTTCAAGCGCCATCTAC”, the binding signal was 1.07 RPM ratio (pull-down/input).

On to “GATGATTGTTCTCCCAGCTGATGAATTATTCCAGTCGAGTAAACAAATTTTCCTAATCTTTCTGTTCAAGCGCCATCTAC”, for which the binding signal was 1.03 RPM ratio (pull-down/input).

For “GATGATTGTTCTCCCAGCTGATGAATTAAAACAATCGAGTAAACAAATTTTCCTAATCTTTCTGTTCAAGCGCCATCTAC”, the binding signal is 2 RPM ratio (pull-down/input).

Regarding “GATGATTGTTCTCCCAGCTGATGAATTGGTGTATTCGAGTAAACAAATTTTCCTAATCTTTCTGTTCAAGCGCCATCTAC”, the binding signal was 1.47 RPM ratio (pull-down/input).

Turning to “GATGATTGTTCTCCCAGCTGATGAATTACGGTTATCGAGTAAACAAATTTTCCTAATCTTTCTGTTCAAGCGCCATCTAC”, the binding signal is 1.1 RPM ratio (pull-down/input).

Regarding “GATGATTGTTCTCCCAGCTGATGAATTTCACATGTCGAGTAAACAAATTTTCCTAATCTTTCTGTTCAAGCGCCATCTAC”, the binding signal was 0.822 RPM ratio (pull-down/input).

Regarding “GATGATTGTTCTCCCAGCTGATGAATTACGCCAGTCGAGTAAACAAATTTTCCTAATCTTTCTGTTCAAGCGCCATCTAC”, the binding signal was 0.949 RPM ratio (pull-down/input).

Consider “GATGATTGTTCTCCCAGCTGATGAATTACCCGGCTCGAGTAAACAAATTTTCCTAATCTTTCTGTTCAAGCGCCATCTAC”, for which the binding signal is 0.84 RPM ratio (pull-down/input).

In the case of “GATGATTGTTCTCCCAGCTGATGAATTGGTCAGCTCGAGTAAACAAATTTTCCTAATCTTTCTGTTCAAGCGCCATCTAC”, the binding signal is 0.862 RPM ratio (pull-down/input).

“GATGATTGTTCTCCCAGCTGATGAATTCCGTTTATCGAGTAAACAAATTTTCCTAATCTTTCTGTTCAAGCGCCATCTAC”: the binding signal was 1.27 RPM ratio (pull-down/input).

With “GATGATTGTTCTCCCAGCTGATGAATTATGTAGCTCGAGTAAACAAATTTTCCTAATCTTTCTGTTCAAGCGCCATCTAC”, the binding signal is 1.02 RPM ratio (pull-down/input).

As for “GATGATTGTTCTCCCAGCTGATGAATTAAATACGTCGAGTAAACAAATTTTCCTAATCTTTCTGTTCAAGCGCCATCTAC”, the binding signal was 1.18 RPM ratio (pull-down/input).

As to “GATGATTGTTCTCCCAGCTGATGAATTGCCCTGTTCGAGTAAACAAATTTTCCTAATCTTTCTGTTCAAGCGCCATCTAC”, the binding signal is 0.883 RPM ratio (pull-down/input).

On to “GATGATTGTTCTCCCAGCTGATGAATTGCGGGCCTCGAGTAAACAAATTTTCCTAATCTTTCTGTTCAAGCGCCATCTAC”, for which the binding signal was 0.933 RPM ratio (pull-down/input).

“GATGATTGTTCTCCCAGCTGATGAATTGCAAGATTCGAGTAAACAAATTTTCCTAATCTTTCTGTTCAAGCGCCATCTAC”: the binding signal is 1.13 RPM ratio (pull-down/input).

Consider “GATGATTGTTCTCCCAGCTGATGAATTGGAAGGTTCGAGTAAACAAATTTTCCTAATCTTTCTGTTCAAGCGCCATCTAC”, for which the binding signal was 0.78 RPM ratio (pull-down/input).

As for “GATGATTGTTCTCCCAGCTGATGAATTAGCTTTCTCGAGTAAACAAATTTTCCTAATCTTTCTGTTCAAGCGCCATCTAC”, the binding signal was 0.863 RPM ratio (pull-down/input).

As for “GATGATTGTTCTCCCAGCTGATGAATTATCCACCTCGAGTAAACAAATTTTCCTAATCTTTCTGTTCAAGCGCCATCTAC”, the binding signal is 0.874 RPM ratio (pull-down/input).

With “GATGATTGTTCTCCCAGCTGATGAATTAATATATTCGAGTAAACAAATTTTCCTAATCTTTCTGTTCAAGCGCCATCTAC”, the binding signal was 1.04 RPM ratio (pull-down/input).

Turning to “GATGATTGTTCTCCCAGCTGATGAATTACGGCAGTCGAGTAAACAAATTTTCCTAATCTTTCTGTTCAAGCGCCATCTAC”, the binding signal is 0.947 RPM ratio (pull-down/input).

Regarding “GATGATTGTTCTCCCAGCTGATGAATTATCCTGTTCGAGTAAACAAATTTTCCTAATCTTTCTGTTCAAGCGCCATCTAC”, the binding signal was 0.962 RPM ratio (pull-down/input).

“GATGATTGTTCTCCCAGCTGATGAATTGTTAGGGTCGAGTAAACAAATTTTCCTAATCTTTCTGTTCAAGCGCCATCTAC”: the binding signal was 1.05 RPM ratio (pull-down/input).

“GATGATTGTTCTCCCAGCTGATGAATTCGGGCCGTCGAGTAAACAAATTTTCCTAATCTTTCTGTTCAAGCGCCATCTAC”: the binding signal was 0.769 RPM ratio (pull-down/input).

As for “GATGATTGTTCTCCCAGCTGATGAATTCCATGTATCGAGTAAACAAATTTTCCTAATCTTTCTGTTCAAGCGCCATCTAC”, the binding signal is 1.03 RPM ratio (pull-down/input).
